Holding throughout (assay): two-hybrid; directed assay; yeast AH109 with pairs of pGADT7 and pGBKT7 plasmids; growth on SD-Leu/-Trp/-Ade/-His
In assay [1] the target is T1, MYB90 (yeast two-hybrid fusion) (Arabidopsis thaliana) (UniProt Q9ZTC3).
T1 sequence: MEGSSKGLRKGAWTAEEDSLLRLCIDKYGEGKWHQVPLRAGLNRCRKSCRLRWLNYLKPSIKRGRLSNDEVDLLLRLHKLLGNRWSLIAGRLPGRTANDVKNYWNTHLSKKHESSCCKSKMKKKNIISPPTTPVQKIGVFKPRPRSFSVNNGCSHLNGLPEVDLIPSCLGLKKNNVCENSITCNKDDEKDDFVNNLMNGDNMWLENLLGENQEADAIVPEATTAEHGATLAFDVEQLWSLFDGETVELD

In assay [2] the target is T2, TPR2 (yeast two-hybrid fusion) (Arabidopsis thaliana) (UniProt Q9LRZ0).
T2 sequence: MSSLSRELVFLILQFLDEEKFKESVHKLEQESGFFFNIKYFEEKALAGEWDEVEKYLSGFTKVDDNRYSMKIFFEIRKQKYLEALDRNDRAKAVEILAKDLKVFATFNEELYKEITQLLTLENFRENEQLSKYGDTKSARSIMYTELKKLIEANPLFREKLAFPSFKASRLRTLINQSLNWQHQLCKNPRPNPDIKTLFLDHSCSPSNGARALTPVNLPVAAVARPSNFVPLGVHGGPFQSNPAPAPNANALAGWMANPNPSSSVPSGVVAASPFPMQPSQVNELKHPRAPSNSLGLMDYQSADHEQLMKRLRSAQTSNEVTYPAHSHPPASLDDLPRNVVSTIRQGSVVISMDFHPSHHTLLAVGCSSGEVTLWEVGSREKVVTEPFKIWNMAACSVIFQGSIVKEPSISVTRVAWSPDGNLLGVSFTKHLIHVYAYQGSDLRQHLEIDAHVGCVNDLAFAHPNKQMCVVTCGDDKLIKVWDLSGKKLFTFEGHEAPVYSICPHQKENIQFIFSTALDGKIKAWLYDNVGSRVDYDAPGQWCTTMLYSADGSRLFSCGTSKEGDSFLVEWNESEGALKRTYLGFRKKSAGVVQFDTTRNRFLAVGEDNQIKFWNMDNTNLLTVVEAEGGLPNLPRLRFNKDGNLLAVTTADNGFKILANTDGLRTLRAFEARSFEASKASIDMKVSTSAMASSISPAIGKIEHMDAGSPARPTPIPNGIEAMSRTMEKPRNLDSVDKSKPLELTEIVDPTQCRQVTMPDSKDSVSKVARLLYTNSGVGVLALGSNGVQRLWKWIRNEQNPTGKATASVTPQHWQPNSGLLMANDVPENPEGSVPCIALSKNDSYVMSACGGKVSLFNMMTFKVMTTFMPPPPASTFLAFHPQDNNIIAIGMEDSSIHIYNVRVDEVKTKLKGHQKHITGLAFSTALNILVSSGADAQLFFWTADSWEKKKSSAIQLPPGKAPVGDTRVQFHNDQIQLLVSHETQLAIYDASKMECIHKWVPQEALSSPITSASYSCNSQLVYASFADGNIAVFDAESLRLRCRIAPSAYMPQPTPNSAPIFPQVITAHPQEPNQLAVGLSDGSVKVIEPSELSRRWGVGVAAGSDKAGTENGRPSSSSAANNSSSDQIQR

Assay [3] deals with T3, TPR3 (yeast two-hybrid fusion) (Arabidopsis thaliana) (UniProt Q84JM4).
T3 sequence: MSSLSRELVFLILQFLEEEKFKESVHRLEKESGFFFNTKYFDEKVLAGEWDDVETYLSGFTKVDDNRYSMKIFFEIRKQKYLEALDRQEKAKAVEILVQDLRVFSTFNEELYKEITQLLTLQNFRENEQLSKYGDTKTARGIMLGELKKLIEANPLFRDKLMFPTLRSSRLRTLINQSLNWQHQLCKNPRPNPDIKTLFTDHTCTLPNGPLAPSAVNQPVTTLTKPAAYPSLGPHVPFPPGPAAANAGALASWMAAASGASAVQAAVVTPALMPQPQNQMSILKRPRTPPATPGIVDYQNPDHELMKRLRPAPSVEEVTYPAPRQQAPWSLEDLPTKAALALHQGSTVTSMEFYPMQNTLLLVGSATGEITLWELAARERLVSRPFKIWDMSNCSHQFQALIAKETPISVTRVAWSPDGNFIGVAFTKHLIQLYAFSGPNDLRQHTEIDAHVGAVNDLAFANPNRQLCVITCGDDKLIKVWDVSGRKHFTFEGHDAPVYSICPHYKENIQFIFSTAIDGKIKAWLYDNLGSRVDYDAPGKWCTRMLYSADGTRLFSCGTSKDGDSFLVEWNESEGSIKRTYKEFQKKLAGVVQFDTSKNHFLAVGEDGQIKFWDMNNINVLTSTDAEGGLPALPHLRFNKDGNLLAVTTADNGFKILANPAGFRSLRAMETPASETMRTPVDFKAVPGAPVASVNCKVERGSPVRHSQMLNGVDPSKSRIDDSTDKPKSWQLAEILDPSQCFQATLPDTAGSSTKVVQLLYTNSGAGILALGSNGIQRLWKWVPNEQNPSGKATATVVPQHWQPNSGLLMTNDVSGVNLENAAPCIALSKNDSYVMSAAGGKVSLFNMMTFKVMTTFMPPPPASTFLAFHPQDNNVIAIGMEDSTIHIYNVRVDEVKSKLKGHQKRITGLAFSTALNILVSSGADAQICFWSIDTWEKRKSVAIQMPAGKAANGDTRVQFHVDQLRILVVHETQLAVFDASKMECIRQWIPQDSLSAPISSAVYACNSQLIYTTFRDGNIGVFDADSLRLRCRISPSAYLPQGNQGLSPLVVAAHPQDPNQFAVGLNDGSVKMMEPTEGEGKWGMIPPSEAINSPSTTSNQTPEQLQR

No constants are given. Whether binding was seen depends on the method and setting. Some binding calls cover weakened binding; strength is not graded here. Tags and fused reporters may be left off the sequences shown.

Data on one molecule can be found in publication PMC6443190, “Regulation of anthocyanin accumulation via MYB75/HAT1/TPL-mediated transcriptional repression” (PLoS Genetics, 2019).

B1: HAT1 (pGADT7 fusion, yeast two-hybrid) (protein, UniProt P46600 1-282)
chain: MMMGKEDLGLSLSLGFAQNHPLQLNLKPTSSPMSNLQMFPWNQTLVSSSDQQKQQFLRKIDVNSLPTTVDLEEETGVSSPNSTISSTVSGKRRSTEREGTSGGGCGDDLDITLDRSSSRGTSDEEEDYGGETCRKKLRLSKDQSAVLEDTFKEHNTLNPKQKLALAKKLGLTARQVEVWFQNRRARTKLKQTEVDCEYLKRCVEKLTEENRRLEKEAAELRALKLSPRLYGQMSPPTTLLMCPSCERVAGPSSSNHNQRSVSLSPWLQMAHGSTFDVMRPRS
B1: the binding result in assay [1] is recorded as “no binding”; in assay [2], “no binding”; in assay [3] it was “binds”.
